Laboratory results published in US10466253B2, “Molecular flux rates through critical pathways measured by stable isotope labeling in vivo, as biomarkers of drug action and disease activity” (The Regents of the University of California, priority 2004, dated 2019).

Tested on: adipose tissue TG synthesis and lipolysis
Details: for adipose tissue TG synthesis: ob/ob mice treated with leptin

B1: leptin: leptin administered to ob/ob mice (protein, UniProt P41160 22-167, looked up)
Leptin: VPIQKVQDDTKTLIKTIVTRINDISHTQSVSAKQRVTGLDFIPGLHPILSLSKMDQTLAVYQQVLTSLPSQNVLQIANDLENLRDLLHLLAFSKSCSLPQTSGLQKPESLDGVLEASLYSTEVVALSRLQGSLQDILQQLDVSPEC
  adipose tissue TG synthesis: suppressed
Listed as Leptin
  adipose tissue TG synthesis: significant decrease
Obese mice, leptin administration
  adipose lipolysis: suppressed

Where two headings read alike, the source gives them in different places.
